These results are taken from ChEMBL document CHEMBL4888484, “Replenishing the malaria drug discovery pipeline: Screening and hit evaluation of the MMV Hit Generation Library 1 (HGL1) against asexual blood stage Plasmodium falciparum ,using a nano luciferase reporter read-out” (2022).

About 540 (0.36%) of roughly 150,000 compounds showed an effect of 50% or more. The list shows a part of the results.

By % Inhibition is commonly meant the drop in the measured response relative to a control, in per cent.

The assay concerns Plasmodium falciparum. The assay can be described thus: Primary screen in NF54 nanoGlo assay, in single point, at 2uM, 72h; a lower Z score goes with more inhibition. The format is functional, Erythrocyte. The note with it: timepoint 72 hour.
In the case of `CCCCc1nc(C)cc(NCCn2cnc3cn(C)nc3c2=O)n1`, the “% Inhibition” value is -17% and the Z score stood at 1.54.
The matching figures for `COc1cccc(-c2cn[nH]c2C2CCN(Cc3ncc[nH]3)CC2)c1`: -7% and 0.73.
On to `COCC(=O)Nc1ccnn1[C@@H](C)CC(C)C`, for which the “% Inhibition” value was -2% and the Z score was found to be 0.34.
On the same counts, the results for `O=C(NC1CCN(Cc2ccccc2)CC1)c1ccn2c(-c3ccccc3Cl)nnc2c1` are -3% and 0.56.
On the same counts, the results for `COCCc1noc(COC2CCN(S(C)(=O)=O)CC2)n1` are -11% and 1.42.
For the molecule `NC(=O)c1ccc(NC(=O)N[C@H]2CCOc3c(F)cccc32)cn1`, the “% Inhibition” value is on record as 1% and the Z score is listed as -0.24.
On the same counts, the results for `CCc1nccc(CN2CCN(c3ccc(F)c(Cl)c3)CC2)n1` are -7% and 1.17.
Take `CNC(=O)c1ncoc1-c1cccs1`: the “% Inhibition” value is reported as -1% and the Z score was determined as 0.18.
On the same counts, the results for `Cc1ccc(C(=O)N2CC(OC(=O)Nc3cccc(F)c3)C2)n1C` are 4% and -0.49.
The matching figures for `Cc1nsc(C(=O)N2CCN(CC(F)(F)CO)CC2)n1`: -9% and 1.19.
The matching figures for `O=C(OC1CCCC1)[C@H]1CC(=O)N(c2ccc3c(c2)CCC3)C1`: -2% and 0.18.
For `Cc1nc(C)c(CC(=O)N[C@H]2C[C@H](c3cc(=O)[nH]cn3)C2)s1`, the “% Inhibition” value is listed as 2% and the Z score was -0.42.
The matching figures for `Cc1ccc([C@H]2c3cc(OCc4ccc(C(=O)N(C)Cc5ccco5)o4)ccc3CCN2C(=O)CC(C)C)cc1`: -11% and 1.67.
The matching figures for `CCNc1ncc(C(=O)N2CCN(c3ccccc3OC)CC2)cn1`: -13% and 2.14.
On the same counts, the results for `CN(CC1CC1)C(=O)CCNS(=O)(=O)c1ccc(Cl)cc1` are -1% and 0.14.
As for `Cc1[nH]c2ccc(Cl)c3c2c1CCN1C(=O)OC(C)(C)[C@@]31C`, the “% Inhibition” value is -17% and the Z score stood at 1.81.
The matching figures for `CC[C@H](NC(=O)N1CCC2(CC1)CN(C)CCCN2C)c1ccc(C)cc1`: -1% and 0.11.
On the same counts, the results for `CN1OCC(S(=O)(=O)NC(C)(C)C)C1c1cccc(OCc2ccccc2)c1` (configuration not stated) are -10% and 1.42.
On the same counts, the results for `COc1nn(C)cc1NC(=O)N1Cc2ccccc2C(C)(C)C1` are 16% and -1.61.
In the case of `CC(O)CN1CCN(CC(O)COCc2cccs2)CC1C` (configuration not stated), the “% Inhibition” value is 6% and the Z score is recorded as -0.47.
On the same counts, the results for `CC(=O)NCc1nc([C@H]2CCOC2)nn1-c1ccc2nc(C)sc2c1` are -9% and 1.73.
On the same counts, the results for `Cc1cc(-c2cn3cc(C(=O)NCCO)nc3c(=O)n2CC2CC2)c(C)o1` are -11% and 1.49.
On the same counts, the results for `COc1ccc2c(c1)CCc1c(C(=O)NCCCN(C)C3CCCCC3)n[nH]c1-2` are -22% and 1.92.
Consider `COc1cc2nc(N3CC[C@@H](O)[C@@H](O)C3)cc(C)c2cc1OC`, for which the “% Inhibition” value was 10% and the Z score is recorded as -1.23.
For the molecule `OCCn1ccc([C@H]2CCCN(Cc3cc4ccccc4o3)C2)n1`, the “% Inhibition” value is -7% and the Z score came out at 0.72.
On the same counts, the results for `O=C1NC2(CCCCC2)C(=O)N1CN1CCc2ccccc2C1` are 5% and -0.73.
On the same counts, the results for `CCCN(C(=O)c1ccncc1F)[C@H]1CC(=O)N(C)C1=O` are -19% and 3.71.
The matching figures for `Cc1cc(C(=O)N2CCN(C3CC3)c3ccc(Cl)cc32)c(C)nn1`: -10% and 1.9.
Turning to `c1ccc2oc(-c3ccnc4nncn34)cc2c1`, the “% Inhibition” value amounted to 38% and the Z score was -4.96.
The matching figures for `CC[C@H](C)NC(=O)c1cccc(Nc2c(Oc3ccccc3OC)cnn(C)c2=O)c1`: 1% and -0.2.
Take `O=c1scnn1Cc1cc(F)cc(F)c1`: the “% Inhibition” value is -8% and the Z score amounted to 1.14.
The matching figures for `Cc1cc(C(=O)N[C@H]2C[C@H](c3ccc(F)c(Br)c3)C2)[nH]n1`: 2% and -0.37.
The matching figures for `O=C1OC2CC1N(C(=O)Cc1noc3ccccc13)C2` (configuration not stated): -2% and 0.33.
For the molecule `Cc1ccc(NC(=O)Cn2c(=O)c3cc(C4CC4)nn3c3ncccc32)cc1`, the “% Inhibition” value stood at 2% and the Z score is on record as -0.39.
On the same counts, the results for `Cc1nnc(C(=O)Nc2cccc(C(=O)NC3CCCCC3)c2)s1` are -10% and 1.57.
On the same counts, the results for `Cc1cc(=O)n2c3c(cc(S(=O)(=O)NCc4ccccc4)cc13)CCC2` are -11% and 1.41.
The matching figures for `Cc1ccc(C(=O)N2CCC[C@@H]2CO)c(=O)n1C`: -25% and 2.28.
For the molecule `CCOc1ccc(CN2CCCn3nc(CNC(=O)C4CCC4)cc3C2)cc1`, the “% Inhibition” value is reported as -13% and the Z score is recorded as 2.26.
Turning to `CCCc1cc(C(=O)N2CCCCCC2)cs1`, the “% Inhibition” value came to 31% and the Z score is -4.37.
The matching figures for `Cc1cc(N[C@H]2CCc3ccccc3C2)ccc1C(N)=O`: 8% and -1.53.
The matching figures for `CNS(=O)(=O)c1cccc(NC(=O)N2CCC(C)(N3CCOCC3)CC2)c1`: 1% and -0.26.
Take `O=C(Nc1nnc(C2CC2)s1)c1ccc2c(c1)OCCO2`: the “% Inhibition” value is reported as 5% and the Z score is -0.89.
In the case of `CCn1ncc(Br)c1C(=O)Nc1cnc(C(C)C)nc1`, the “% Inhibition” value is -9% and the Z score worked out at 1.5.
On the same counts, the results for `O=C(Cn1ccc2ccccc2c1=O)N1CCC[C@H](C2CC2)C1` are -1% and 0.19.
The matching figures for `Cc1ccccc1-c1ccccc1C(=O)N1CCCn2nncc2C1`: 0% and -0.02.
On the same counts, the results for `CC(C)c1noc([C@@H]2CCCN2Cc2nc3c(cnn3C)c(=O)[nH]2)n1` are 3% and -0.52.
For the molecule `O=C(O)[C@H]1CC12CCN(Cc1cccc(C(F)F)c1)CC2`, the “% Inhibition” value stood at 2% and the Z score is -0.23.
On the same counts, the results for `Cc1cc(C(=O)N2CCC[C@H](c3cccnc3)C2)ns1` are -4% and 0.7.
With `COc1cccc(-c2cc(=O)n(CC(=O)NCc3ccc(Cl)cc3)c(C)n2)c1`, the “% Inhibition” value stood at 5% and the Z score is listed as -0.54.
For the molecule `Cc1cc(C)n(-c2nnc3c4ccccc4n(CC#N)c3n2)n1`, the “% Inhibition” value is recorded as -2% and the Z score is recorded as 0.33.
Regarding `CCc1cc(C(=O)N2CCC[C@@H]2CO)on1`, the “% Inhibition” value is on record as -1% and the Z score worked out at 0.27.
On the same counts, the results for `Cc1[nH]c2ccc(CNc3ccc(C(=O)N(C)C)cn3)cc2c1C` are -8% and 1.09.
The matching figures for `CCn1cc(CN(C)C(=O)Cc2nonc2C)c(C)n1`: -6% and 0.99.
The matching figures for `CC(=O)NCc1csc(C2CCN(S(=O)(=O)c3ccc(Cl)cc3)CC2)n1`: -5% and 0.67.
Take `CS(=O)(=O)N1C[C@H]2CC[C@@H](C1)N(CC(=O)N1CCc3ccccc31)C2`: the “% Inhibition” value is recorded as -9% and the Z score came to 1.92.
Turning to `O=C(c1cnn2c1CCCC2)N1CCc2ccc(F)cc2C1`, the “% Inhibition” value is listed as -4% and the Z score is 0.65.
Turning to `CC(C)CNC(=O)CN(C)C1CCCN(C(=O)c2cn3c(n2)CC(C)CC3)C1` (configuration not stated), the “% Inhibition” value is -2% and the Z score came to 0.29.
On the same counts, the results for `CCc1cc(N(CCCO)Cc2ccccn2)n2ncnc2n1` are -1% and 0.15.
On the same counts, the results for `O=C([C@H]1CCCS(=O)(=O)C1)N1CC(Cc2ccoc2)C1` are 0% and 0.04.
On the same counts, the results for `Cc1noc(CNC(=O)[C@H]2CCC(F)(F)C2)n1` are 34% and -3.85.
As to `CCc1[nH]ncc1C(=O)Nc1ccc(OCC(F)(F)F)c(C)c1`, the “% Inhibition” value was 17% and the Z score is reported as -2.24.
On the same counts, the results for `O=C(Nc1ccc(Cl)c(F)c1)c1cc2nc(N3CCCCC3)sc2s1` are -4% and 0.65.
On the same counts, the results for `Cc1nccc(NC(=O)c2c(F)cccc2Br)n1` are 2% and -0.33.
On the same counts, the results for `CC(C)CN(CC(=O)N(CCc1ccccc1)Cc1ccco1)S(C)(=O)=O` are 9% and -1.75.
As for `COc1cc(OC)nc(-c2cccc(C(=O)N3CCN(C)C(=O)C3)c2)n1`, the “% Inhibition” value was -10% and the Z score is on record as 1.47.
On the same counts, the results for `COC[C@H](C)NC(=O)c1ccc2oc(C(C)C)nc2c1` are -17% and 1.46.
The matching figures for `CCS(=O)(=O)N1CCN(c2ccc(C3CC3)nn2)CC1`: 11% and -1.41.
The matching figures for `CN1CCO[C@H](C(=O)N2CCC(c3ncc(C(F)(F)F)[nH]3)CC2)C1`: -4% and 0.48.
For the molecule `Fc1ccc2nc(-c3cnc(-c4ccccc4)nc3)[nH]c2c1`, the “% Inhibition” value is -2% and the Z score came out at 0.21.
On the same counts, the results for `Cc1n[nH]c(C)c1CC(=O)N[C@@H](C)c1ncnn1C` are -2% and 0.39.
Take `O=S(=O)(CCCN1CCN(CCO)CC1)c1ccc(Cl)cc1`: the “% Inhibition” value stood at 0% and the Z score is reported as 0.06.
The matching figures for `CCOCC(=O)N1CCC[C@@H]1Cn1ccnc1`: 5% and -0.87.
`Cc1cc(N2CCCN(c3ccc4nncn4n3)CC2)n2ncnc2n1`: the “% Inhibition” value is -9% and the Z score came out at 1.04.
On the same counts, the results for `CC(=O)NCc1cc(Cl)cc(Cl)c1OC(F)F` are -13% and 1.56.
The matching figures for `NC(=O)Cc1nc([C@H]2CCS(=O)(=O)C2)n(-c2ccc3c(c2)CCC3)n1`: -7% and 1.32.
On the same counts, the results for `O=C(Nc1cc(NC(=O)C2CCCOC2)nc(-c2ccccc2)n1)C1CCCOC1` (configuration not stated) are 0% and 0.02.
`COc1ccc2ncn(C[C@H]3CCCOC3)c(=O)c2c1`: the “% Inhibition” value is reported as -12% and the Z score turned out to be 1.53.
On the same counts, the results for `CCc1ncn2ccnc(N3CCN(C(=O)c4ccco4)CC3)c12` are 2% and -0.18.
On the same counts, the results for `CCOc1cc(Cl)ccc1CNC(=O)c1c[nH]c(C)cc1=O` are -10% and 1.88.
The matching figures for `CC1CN(C(=O)c2cc3nccnc3cc2F)CC[S+]([O-])C1` (configuration not stated): -8% and 0.86.
As for `CCN(C)CC1CCN(C(=O)C2CCCN(C(=O)c3ccc(F)cc3)C2)C1` (configuration not stated), the “% Inhibition” value is 3% and the Z score is given as -0.41.
On the same counts, the results for `Cc1ccc(-c2cc(=O)[nH]c(N3CCN(C(c4ccccc4)c4ccccc4)CC3)n2)cc1` are -3% and 0.33.
On the same counts, the results for `CCS(=O)(=O)N(CCN1CCCCC1)C1CN(C(=O)c2cc(OC)cc(OC)c2)C1` are 1% and -0.2.
On the same counts, the results for `C=C1C(C(=O)Nc2c(C)cccc2CC)[C@H]1C(=O)Nc1c(C)cccc1CC` (some centres not stated) are 12% and -1.57.
Take `Cc1csc(C2(NCc3ccoc3C)CCOCC2)n1`: the “% Inhibition” value was -14% and the Z score is 1.94.
The matching figures for `COc1cccc(CC(=O)N2CCc3c(c(-c4nncn4C)nn3C)C2)c1`: 5% and -0.62.
